Source: PMC9452587
Results are given in words; binding and its absence hold for the method and conditions named. In cells and extracts the contact can be indirect. Some entries that bind do so weakly or less than the wild type. For some of these results: Where a sequence is shown, tags or fusion partners need not be part of it.

How the values were obtained:
[1] = target: T1, TNFR1 (mouse (endogenous in MEFs)) (UniProt P25118); assay: co-IP; MEFs (WT, PP6 knockout and reconstituted) treated with TNFα 50 ng/ml for indicated times, NP-40 lysis, anti-TNFR1 antibody overnight at 4 °C, Protein G agarose, western blot
T1 sequence: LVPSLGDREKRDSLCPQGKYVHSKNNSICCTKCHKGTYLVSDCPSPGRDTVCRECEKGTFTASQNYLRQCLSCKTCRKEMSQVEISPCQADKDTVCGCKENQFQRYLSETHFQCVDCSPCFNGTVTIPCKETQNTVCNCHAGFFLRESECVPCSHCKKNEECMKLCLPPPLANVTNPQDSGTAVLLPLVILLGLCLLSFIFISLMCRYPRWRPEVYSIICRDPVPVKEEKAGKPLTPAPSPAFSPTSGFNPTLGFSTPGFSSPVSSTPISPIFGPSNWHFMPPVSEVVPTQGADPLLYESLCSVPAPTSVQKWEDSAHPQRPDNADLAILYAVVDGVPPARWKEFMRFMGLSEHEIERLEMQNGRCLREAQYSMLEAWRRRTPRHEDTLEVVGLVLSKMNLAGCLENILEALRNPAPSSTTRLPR

[2] = target: T2, HA-HOIP (1-864) (UniProt Q924T7); assay: co-IP; FLAG-PP6 co-expressed with HA-Sharpin, HA-HOIP WT or truncated HA-HOIP in 293T cells for 24 h, NP-40 lysis, anti-HA beads, western blot
T2 sequence: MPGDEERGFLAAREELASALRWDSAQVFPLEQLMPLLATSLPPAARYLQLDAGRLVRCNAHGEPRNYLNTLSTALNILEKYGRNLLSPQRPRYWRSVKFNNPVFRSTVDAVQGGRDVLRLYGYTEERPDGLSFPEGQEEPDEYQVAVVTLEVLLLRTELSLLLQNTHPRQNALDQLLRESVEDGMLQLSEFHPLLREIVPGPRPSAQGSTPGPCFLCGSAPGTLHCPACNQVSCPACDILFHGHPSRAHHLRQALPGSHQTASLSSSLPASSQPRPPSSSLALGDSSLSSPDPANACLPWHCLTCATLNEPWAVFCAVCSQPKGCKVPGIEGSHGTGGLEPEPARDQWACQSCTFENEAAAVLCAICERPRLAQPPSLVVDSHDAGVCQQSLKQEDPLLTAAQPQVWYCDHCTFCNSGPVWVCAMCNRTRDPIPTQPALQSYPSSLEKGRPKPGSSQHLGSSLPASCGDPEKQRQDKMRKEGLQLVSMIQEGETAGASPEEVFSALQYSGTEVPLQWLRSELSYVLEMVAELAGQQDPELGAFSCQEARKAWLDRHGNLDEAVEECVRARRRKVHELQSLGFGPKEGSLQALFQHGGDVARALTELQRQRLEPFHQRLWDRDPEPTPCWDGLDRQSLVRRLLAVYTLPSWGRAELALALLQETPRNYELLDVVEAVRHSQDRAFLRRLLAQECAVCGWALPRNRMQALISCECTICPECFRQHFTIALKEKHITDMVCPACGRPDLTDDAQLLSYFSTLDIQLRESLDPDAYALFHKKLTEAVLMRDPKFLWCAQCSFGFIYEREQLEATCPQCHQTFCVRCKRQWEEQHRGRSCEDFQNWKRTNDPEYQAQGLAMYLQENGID

[3] = target: T3, HA-Sharpin (UniProt Q91WA6); assay: as above
T3 sequence: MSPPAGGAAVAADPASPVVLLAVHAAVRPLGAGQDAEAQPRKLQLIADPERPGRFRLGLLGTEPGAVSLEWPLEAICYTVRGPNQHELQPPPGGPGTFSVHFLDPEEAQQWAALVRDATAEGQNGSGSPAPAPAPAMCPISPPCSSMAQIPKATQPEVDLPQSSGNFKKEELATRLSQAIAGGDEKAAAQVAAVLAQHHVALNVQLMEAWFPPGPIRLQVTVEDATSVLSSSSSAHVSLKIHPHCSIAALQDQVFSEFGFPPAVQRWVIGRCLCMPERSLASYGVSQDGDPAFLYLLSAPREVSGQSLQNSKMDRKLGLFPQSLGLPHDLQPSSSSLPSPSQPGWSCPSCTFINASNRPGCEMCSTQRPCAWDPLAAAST

[4] = target: T4, HA-HOIP (1-704) (UniProt Q924T7); assay: as above
T4 sequence: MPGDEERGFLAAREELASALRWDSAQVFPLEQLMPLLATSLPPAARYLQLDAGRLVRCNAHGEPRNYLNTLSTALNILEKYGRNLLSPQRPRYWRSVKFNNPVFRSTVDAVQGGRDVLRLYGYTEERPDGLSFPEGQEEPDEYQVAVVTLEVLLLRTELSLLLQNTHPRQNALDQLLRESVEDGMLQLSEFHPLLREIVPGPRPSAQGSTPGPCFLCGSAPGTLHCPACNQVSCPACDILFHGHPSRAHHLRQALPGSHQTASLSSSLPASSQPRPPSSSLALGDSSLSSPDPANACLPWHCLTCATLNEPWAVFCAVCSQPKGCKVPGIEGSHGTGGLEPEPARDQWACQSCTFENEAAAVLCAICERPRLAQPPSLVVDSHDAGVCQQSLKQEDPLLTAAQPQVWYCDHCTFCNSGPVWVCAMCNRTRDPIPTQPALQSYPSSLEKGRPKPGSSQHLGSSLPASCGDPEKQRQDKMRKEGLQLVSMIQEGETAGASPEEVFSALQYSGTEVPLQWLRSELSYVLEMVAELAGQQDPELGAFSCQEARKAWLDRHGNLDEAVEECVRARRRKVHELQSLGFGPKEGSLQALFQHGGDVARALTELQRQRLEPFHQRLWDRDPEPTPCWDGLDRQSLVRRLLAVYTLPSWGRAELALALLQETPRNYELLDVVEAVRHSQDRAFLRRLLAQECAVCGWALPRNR

[5] = target: HA-HOIP (WT) (UniProt Q924T7); assay: as above
[6] = target: T5, RIPK1 (mouse (endogenous in MEFs)) (UniProt Q60855); assay: proximity ligation; in situ PLA in fixed, permeabilised MEFs treated with PBS or TNFα for 30 min; anti-RIPK1 (homemade) and anti-PPP6R3 (16944-1-AP); dots counted in 20 cells a group; PPP6R3^−/− MEFs as control
T5 sequence: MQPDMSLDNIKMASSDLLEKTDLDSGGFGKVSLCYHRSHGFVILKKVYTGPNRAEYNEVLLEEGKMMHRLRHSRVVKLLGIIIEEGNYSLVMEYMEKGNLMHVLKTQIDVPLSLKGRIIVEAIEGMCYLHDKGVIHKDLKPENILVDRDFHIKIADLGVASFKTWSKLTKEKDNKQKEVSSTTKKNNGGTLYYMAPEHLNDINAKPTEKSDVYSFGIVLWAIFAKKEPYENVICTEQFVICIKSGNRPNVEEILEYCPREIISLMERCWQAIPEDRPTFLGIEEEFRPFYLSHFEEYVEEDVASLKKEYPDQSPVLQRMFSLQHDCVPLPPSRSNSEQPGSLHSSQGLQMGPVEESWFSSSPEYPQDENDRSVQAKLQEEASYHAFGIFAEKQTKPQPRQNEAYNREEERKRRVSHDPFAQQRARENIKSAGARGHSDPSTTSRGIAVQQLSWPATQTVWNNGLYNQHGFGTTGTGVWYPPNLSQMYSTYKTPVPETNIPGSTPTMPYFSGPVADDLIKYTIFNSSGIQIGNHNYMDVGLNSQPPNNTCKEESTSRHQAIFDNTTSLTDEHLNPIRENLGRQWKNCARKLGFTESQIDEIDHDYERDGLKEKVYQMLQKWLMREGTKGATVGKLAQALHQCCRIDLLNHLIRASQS

B1: A20 (enzyme, UniProt Q60769 1-775)
chain: MAEQLLPQALYLSNMRKAVKIRERTPEDIFKPTNGIIYHFKTMHRYTLEMFRTCQFCPQFREIIHKALIDRSVQASLESQKKLNWCREVRKLVALKTNGDGNCLMHAACQYMWGVQDTDLVLRKALCSTLKETDTRNFKFRWQLESLKSQEFVETGLCYDTRNWNDEWDNLVKMASADTPAARSGLQYNSLEEIHIFVLSNILRRPIIVISDKMLRSLESGSNFAPLKVGGIYLPLHWPAQECYRYPIVLGYDSQHFVPLVTLKDSGPELRAVPLVNRDRGRFEDLKVHFLTDPENEMKEKLLKEYLIVMEIPVQGWDHGTTHLINAAKLDEANLPKEINLVDDYFELVQHEYKKWQENSDQARRAAHAQNPLEPSTPQLSLMDIKCETPNCPFFMSVNTQPLCHECSERRQKNQSKLPKLNSKLGPEGLPGVGLGSSNWSPEETAGGPHSAPPTAPSLFLFSETTAMKCRSPGCPFTLNVQHNGFCERCHARQINASHTADPGKCQACLQDVTRTFNGICSTCFKRTTAEPSSSLTSSIPASCHQRSKSDPSQLIQSLTPHSCHRTGNVSPSGCLSQAARTPGDRAGTSKCRKAGCMYFGTPENKGFCTLCFIEYRENKQSVTASEKAGSPAPRFQNNVPCLGRECGTLGSTMFEGYCQKCFIEAQNQRFHEARRTEEQLRSSQHRDMPRTTQVASRLKCARASCKNILACRSEELCMECQHLSQRVGSVAHRGEPTPEEPPKQRCRAPACDHFGNAKCNGYCNECYQFKQMYG
- binding [1]: binds

B2: FLAG-PP6 (enzyme, UniProt Q9CQR6 1-305)
chain: MAPLDLDKYVEIARQCKYLPENDLKRLCDYVCDLLLEESNVQPVSTPVTVCGDIHGQFYDLCELFRTGGQVPDTNYIFMGDFVDRGYYSLETFTYLLALKAKWPDRITLLRGNHESRQITQVYGFYDECQTKYGNANAWRYCTKVFDMLTVAALIDEQILCVHGGLSPDIKTLDQIRTIERNQEIPHKGAFCDLVWSDPEDVDTWAISPRGAGWLFGAKVTNEFVHINNLKLICRAHQLVHEGYKFMFDEKLVTVWSAPNYCYRCGNIASIMVFKDVNTREPKLFRAVPDSERVIPPRTTTPYFL
- binding [2]: no binding
- binding [3]: no binding
- binding [4]: no binding
- binding [5]: binds

B3: Sharpin (protein, UniProt Q91WA6 1-380)
chain: T3 sequence
- binding [1]: binds

B4: PPP6R3, a regulatory subunit of PP6 (protein, UniProt Q922D4 1-844)
chain: MFWKFDLHSSSHIDTLLEREDVTLKELMDEEDVLQECKAQNRKLIEFLLKAECLEDLVSFIIEEPPQDMDEKIRYKYPNISCELLTSDVSQMNDRLGEDESLLMKLYSFLLNESPLNPLLASFFSKVLSILISRKPEQIVDFLKKKRDFVDLIIKHIGTSAIMDLLLRLLTCIEPPQPRQDVLNWLNEERIIQRLVEIVHPSQEEDRHSNASQSLCEIVRLSRDQMLQVQNSTEPDPLLATLEKQEIIEQLLSNIFHKEKNESAIVSAIQILLTLLETRRPTFEGHIEICPPGMSHSACSVNKSVLEAIRGRLGSFHELLLEPPKKSVMKTTWGILDPPVGNTRLNVIRLISSLLQTNTSSINGDLMELNSIGVILDMFFKYTWNNFLHTQVEICIALILASPFENAENGTITDQDSTGDNLLLKHLFQKCQLIERILEAWDTNEKKQAEGGRRHGYMGHLTRIANCIVHSTDKGPNSALVQQLIKDLPDEVRERWETFCTNSLGETNKRNTVDLAFSDYQMQQMTSNFIDQFGFNDEKFADQDDIGNVSFDRVSDINFTLNTNESGNIALFEACCKERIQQFDDGGSDEEDIWEEKHIAFTPESQRRSSSGSTDSEESTDSEEEDGAKQDLFESSSANTEDKMEVDLNEPPTWSANFDVPMETTHGAPLDSVGSDVWSTEEPMPTKETGWASFSEFTSSLSTKESLRSNSPVEMETSTESVDPLTPGAAALATQPEAPGSMAMEASSDGEEDAESTDKVTETVMNGGMKETLSLTVDAKTETAVFKSEEEKLSTSQDAACKDAEETPEPAEAKCTAPLTPSSSPEQRTDQPSMPSDPSVNGPV
- binding [6]: binds
